Some of the results follow. Sequences were assembled here from the parent chain. Inactive controls read about 0.05.
B1: TEV protease; numbered along this chain (parent)
chain: MGESLFKGPRDYNPISSSICHLTNESDGHTTSLYGIGFGPFIITNKHLFRRNNGTLVVQSLHGVFKVKDTTTLQQHLVDGRDMIIIRMPKDFPPFPQKLKFREPQREERICLVTTNFQTKSMSSMVSDTSCTFPSGDGIFWKHWIQTKDGQCGSPLVSTRDGFIVGIHSASNFTNTNNYFTSVPKNFMELLTNQEAQQWVSGWRLNADSVLWGGHKVFMVKPEEPFQPVKEATQL

Variants of: B1
Test: raw area under fraction-flipped curve 0-4 h after induction (AUC4h, not background-subtracted), DNA-recorder readout of cleavage of the substrate (dimensionless); higher = more cleavage of the substrate by the protease variant
Conditions: temperature: 34 °C; time window: 0-4 h after rhamnose induction
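Also: Bxb1 expression induced with 0.2% (w/v) L-rhamnose at OD600 near 0.5, cultures sampled hourly, flipped fraction per protease–substrate barcode pair counted by paired-end Illumina sequencing.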

Variant	area with substrate EALYFQS	area with substrate ECLYFQS	area with substrate EDLYFQS	area with substrate EFLYFQS	area with substrate ELLYFQS	area with substrate EPLYFQS	area with substrate EQLYFQS	area with substrate ERLYFQS	area with substrate ESLYFQS	area with substrate EVLYFQS	area with substrate EELYFQS	area with substrate EHLYFQS	area with substrate EILYFQS	area with substrate EKLYFQS	area with substrate EMLYFQS	area with substrate EWLYFQS	area with substrate EYLYFQS	area with substrate EGLYFQS	area with substrate ETLYFQS
MGESLFKGPRDYNPISSSICHLTNESDGHTTSLYGIGFGPFIITNKHLFRRNNGTLVVQSLHGVFKVKDTTTLQQHLVDGRDMIIIRMPKDFPPFPQKLKFREPQREERICLVTTNFQTKSMSSMVSDTSCTFPSGDGIFWKHWIQTKDGQCGSPLVSTRDGFIVGIHSASNFTNTNNYFTSVPKNFMELLTNQEAQQWVSGRRLNADSVLWGGHKVFMVKPEEPFQPVKEATQL [W203R]	0.0765	0.0838	0.0725	0.0749	0.0633	0.0669	0.0555	0.0634	0.0658	0.0622	–	–	–	–	–	–	–	–	–
MGESLFKGPRDYNPISSSICHLTNESDGHTTSLYGIGFGPFIITNKHLFRRNNGTLVVQSLHGVFKVKDTTTLQQHLVDGRDMIIIRMPKDFPPFPQKLKFREPQREERICLVTTNFQTKSMSSMVSDTSCTFPSGDGIFWKHWIQTKDGQCGSPLVSTRDGFIVGIHSASNFTNTNNYFTSVPKNFMELLTNQEAQQWVSGWRLNADSVLMGGHKVFMVKPEEPFQPVKEATQL [W212M]	0.18	0.142	0.194	–	–	–	0.148	0.111	0.125	0.141	0.0756	0.162	0.109	0.128	0.118	0.129	0.141	–	–
MGESLFKGPRDYNPISSSICHLTNESDGHTTSLYGIGFGPFIITNKHLFRRNNGTLVVQSLHGVFKVKDTTTLQQHLVDGRDMIIIRMPKDFPPFPQKLKFREPQREERICLVTTNFQTKSMSSMVSDTSCTFPSGDGIFWKHWIQTKDGQCGSPLVSTRDGFIVGIHSASNFTNTNNYFTSVPKNFMELLTNQEAQQWVSGWRFNADSVLWGGHKVFMVKPEEPFQPVKEATQL [L205F]	0.0361	0.0788	0.0778	–	–	–	–	0.0962	–	0.0883	–	0.169	–	0.121	0.145	–	0.0856	0.0787	–
MGESLFKGPRDYNPISSSICHLTNESDGHTTSLYGIGFGPFIITNKHLFRRNNGTLVVQSLHGVFKVKDTTTLQQHLVDGRDMIIIRMPKDFPPFPQKLKFREPQREERICLVTTNFQTKSMSSMVSDTSCTFPSGDGIFWKHWIQTKDGQCGSPLVSTRDGFIVGIHSASNFTNTNNYFTSVPKNFMELLTNQEAQQWVSGWRNNADSVLWGGHKVFMVKPEEPFQPVKEATQL [L205N]	0.0728	0.0383	0.0813	–	–	–	0.0769	–	–	–	0.0863	0.0803	0.0744	–	–	–	–	0.049	–
MGESLFKGPRDYNPISSSICHLTNESDGHTTSLYGIGFGPFIITNKHLFRRNNGTLVVQSLHGVFKVKDTTTLQQHLVDGRDMIIIRMPKDFPPFPQKLKFREPQREERICLVTTNFQTKSMSSMVSDTSCTFPSGDGIFWKHWIQTKDGQCGSPLVSTRDGFIVGIHSASNFTNTNNYFTSVPKNFMELLTNQEAQQWVSGWELNADSVLWGGHKVFMVKPEEPFQPVKEATQL [R204E]	0.15	0.116	–	–	0.0817	0.188	0.136	0.105	–	0.101	0.176	0.121	0.086	0.109	–	0.1	–	–	–
MGESLFKGPRDYNPISSSICHLTNESDGHTTSLYGIGFGPFIITNKHLFRRNNGTLVVQSLHGVFKVKDTTTLQQHLVDGRDMIIIRMPKDFPPFPQKLKFREPQREERICLVTTNFQTKSMSSMVSDTSCTFPSGDGIFWKHWIQTKDGQCGSPLVSTRDGFIVGIHSASNFTNTNNYFTSVPKNFMELLTNQEAQQWVSGWNLNADSVLWGGHKVFMVKPEEPFQPVKEATQL [R204N]	0.13	0.105	0.0512	0.081	–	0.131	0.121	0.111	0.137	0.0988	0.138	0.117	0.104	0.104	0.121	–	0.103	0.095	–
MGESLFKGPRDYNPISSSICHLTNESDGHTTSLYGIGFGPFIITNKHLFRRNNGTLVVQSLHGVFKVKDTTTLQQHLVDGRDMIIIRMPKDFPPFPQKLKFREPQREERICLVTTNFQTKSMSSMVSDTSCTFPSGDGIFWKHWIQTKDGQCGSPLVSTRDGFIVGIHSASNFTNTNNYFTSVPKNFMELLTNQEAQQWVSSWRLNADSVLWGGHKVFMVKPEEPFQPVKEATQL [G202S]	0.0825	0.0591	0.0862	–	–	0.0474	0.0799	–	0.0553	0.0754	0.0586	–	0.0958	–	0.0778	0.0767	–	0.081	–
MGESLFKGPRDYNPISSSICHLTNESDGHTTSLYGIGFGPFIITNKHLFRRNNGTLVVQSLHGVFKVKDTTTLQQHLVDGRDMIIIRMPKDFPPFPQKLKFREPQREERICLVTTNFQTKSMSSMVSDTSCTFPSGDGIFWKHWIQTKDGQCGSPLVSTRDGFIVGIHSASNFTNTNNYFTSVPKNFMELLTNQEAQQWVSNWRLNADSVLWGGHKVFMVKPEEPFQPVKEATQL [G202N]	0.0801	0.0609	–	0.0719	0.0716	0.0505	0.0824	0.0876	0.0644	–	0.0809	–	0.0616	–	0.0675	0.082	–	–	–
MGESLFKGPRDYNPISSSICHLTNESDGHTTSLYGIGFGPFIITNKHLFRRNNGTLVVQSLHGVFKVKDTTTLQQHLVDGRDMIIIRMPKDFPPFPQKLKFREPQREERICLVTTNFQTKSMSSMVSDTSCTFPSGDGIFWKHWIQTKDGQCGSPLVSTRDGFIVGIHSASNFTNTNNYFTSVPKNFMELLTNQEAQQWVSVWRLNADSVLWGGHKVFMVKPEEPFQPVKEATQL [G202V]	0.0629	0.0694	0.0713	–	0.0576	–	0.071	0.0631	0.0638	0.104	0.0726	0.0608	0.062	0.0654	0.0674	0.0499	0.0561	0.0465	0.0544
MGESLFKGPRDYNPISSSICHLTNESDGHTTSLYGIGFGPFIITNKHLFRRNNGTLVVQSLHGVFKVKDTTTLQQHLVDGRDMIIIRMPKDFPPFPQKLKFREPQREERICLVTTNFQTKSMSSMVSDTSCTFPSGDGIFWKHWIQTKDGQCGSPLVSTRDGFIVGIHSASNFTNTNNYFTSVPKNFMELLTNQEAQQWVSGWRLNADCVLWGGHKVFMVKPEEPFQPVKEATQL [S209C]	0.114	0.101	0.0747	0.114	0.085	–	0.103	0.0951	0.0862	0.0815	–	0.106	0.127	0.0902	0.112	–	–	–	0.13
MGESLFKGPRDYNPISSSICHLTNESDGHTTSLYGIGFGPFIITNKHLFRRNNGTLVVQSLHGVFKVKDTTTLQQHLVDGRDMIIIRMPKDFPPFPQKLKFREPQREERICLVTTNFQTKSMSSMVSDTSCTFPSGDGIFWKHWIQTKDGQCGSPLVSTRDGFIVGIHSASNFTNTNNYFTSVPKNFMELLTNQEAQQWVPGWRLNADSVLWGGHKVFMVKPEEPFQPVKEATQL [S201P]	0.0754	0.0622	0.0559	–	0.0544	–	0.0656	0.0574	0.062	0.064	–	0.0758	0.0534	–	0.0587	0.0568	–	0.0468	0.0596
MGESLFKGPRDYNPISSSICHLTNESDGHTTSLYGIGFGPFIITNKHLFRRNNGTLVVQSLHGVFKVKDTTTLQQHLVDGRDMIIIRMPKDFPPFPQKLKFREPQREERICLVTTNFQTKSMSSMVSDTSCTFPSGDGIFWKHWIQTKDGQCGSPLVSTRDGFIVGIHSASNFTNTNNYFTSVPKNFMELLTNQEAQQWVSGWRLNADSDLWGGHKVFMVKPEEPFQPVKEATQL [V210D]	0.0617	0.0702	0.102	–	–	0.0939	0.075	0.074	0.0774	0.0551	0.0817	–	0.0601	0.0756	0.0687	–	–	–	0.07
MGESLFKGPRDYNPISSSICHLTNESDGHTTSLYGIGFGPFIITNKHLFRRNNGTLVVQSLHGVFKVKDTTTLQQHLVDGRDMIIIRMPKDFPPFPQKLKFREPQREERICLVTTNFQTKSMSSMVSDTSCTFPSGDGIFWKHWIQTKDGQCGSPLVSTRDGFIVGIHSASNFTNTNNYFTSVPKNFMELLTNQEAQQWVSGWRLNADSGLWGGHKVFMVKPEEPFQPVKEATQL [V210G]	0.0754	0.11	–	–	–	–	–	–	0.0934	0.0791	0.096	0.141	0.0707	0.094	–	–	–	0.0844	–
MGESLFKGPRDYNPISSSICHLTNESDGHTTSLYGIGFGPFIITNKHLFRRNNGTLVVQSLHGVFKVKDTTTLQQHLVDGRDMIIIRMPKDFPPFPQKLKFREPQREERICLVTTNFQTKSMSSMVSDTSCTFPSGDGIFWKHWIQTKDGQCGSPLVSTRDGFIVGIHSASNFTNTNNYFTSVPKNFMELLTNQEAQQWVSGWRLNADSKLWGGHKVFMVKPEEPFQPVKEATQL [V210K]	0.07	0.094	–	–	0.0587	0.0982	0.0622	0.0657	0.0423	0.113	0.0793	0.0737	0.0604	0.0977	0.0611	–	0.0668	–	–
MGESLFKGPRDYNPISSSICHLTNESDGHTTSLYGIGFGPFIITNKHLFRRNNGTLVVQSLHGVFKVKDTTTLQQHLVDGRDMIIIRMPKDFPPFPQKLKFREPQREERICLVTTNFQTKSMSSMVSDTSCTFPSGDGIFWKHWIQTKDGQCGSPLVSTRDGFIVGIHSASNFTNTNNYFTSVPKNFMELLTNQEAQQWVSGWRLNADSVLWSGHKVFMVKPEEPFQPVKEATQL [G213S]	0.0593	0.0682	–	–	0.0915	0.0945	0.0775	0.115	0.0771	0.0509	0.0914	–	–	0.0799	–	0.0705	–	0.0509	0.0703
MGESLFKGPRDYNPISSSICHLTNESDGHTTSLYGIGFGPFIITNKHLFRRNNGTLVVQSLHGVFKVKDTTTLQQHLVDGRDMIIIRMPKDFPPFPQKLKFREPQREERICLVTTNFQTKSMSSMVSDTSCTFPSGDGIFWKHWIQTKDGQCGSPLVSTRDGFIVGIHSASNFTNTNNYFTSVPKNFMELLTNQEAQQWVSGWRLNADSVLWYGHKVFMVKPEEPFQPVKEATQL [G213Y]	0.111	0.0585	0.0693	0.0551	0.0813	–	–	0.113	0.063	–	0.064	0.0617	0.0593	0.0524	0.0556	–	–	–	0.0551
MGESLFKGPRDYNPISSSICHLTNESDGHTTSLYGIGFGPFIITNKHLFRRNNGTLVVQSLHGVFKVKDTTTLQQHLVDGRDMIIIRMPKDFPPFPQKLKFREPQREERICLVTTNFQTKSMSSMVSDTSCTFPSGDGIFWKHWIQTKDGQCGSPLVSTRDGFIVGIHSASNFTNTNNYFTSVPKNFMELLTNQEAQQWVSGWRLNADSVLWAGHKVFMVKPEEPFQPVKEATQL [G213A]	0.079	0.116	0.121	0.0551	0.0712	0.0618	0.0887	–	0.0763	0.0635	0.0873	0.0921	0.0667	0.0733	0.0733	–	0.0759	0.0556	0.0884
MGESLFKGPRDYNPISSSICHLTNESDGHTTSLYGIGFGPFIITNKHLFRRNNGTLVVQSLHGVFKVKDTTTLQQHLVDGRDMIIIRMPKDFPPFPQKLKFREPQREERICLVTTNFQTKSMSSMVSDTSCTFPSGDGIFWKHWIQTKDGQCGSPLVSTRDGFIVGIHSASNFTNTNNYFTSVPKNFMELLTNQEAQQWVSGWRLNADSVLWKGHKVFMVKPEEPFQPVKEATQL [G213K]	0.0523	0.0793	0.0727	0.0659	0.056	0.0496	0.0635	0.0596	0.0473	0.0573	0.046	0.0606	0.0606	0.0367	0.0588	–	0.054	–	0.0738
